Measured values from the RNAGym collection of RNA variant scans (doi:10.1073/pnas.2313332121).
This sample is rich in variants without activity.

B1: TPR 5TU (parent)
chain: GGAUCUUCUCGAUCUAACAAAAAAGACAAAUCUGCCACAAAGCUUGAGAGCAUCUUCGGAUGCAGAGGCGGCAGCCUUCGGUGGCGCGAUAGCGCCAACGUUCUCAACUAUGACACGCAAAACGCGUGCUCCGUUGAAUGGAGUUUAUCAUG

Variants of: B1
Experiment: polymerase ribozyme fitness, log enrichment relative to wild type (log ratio); higher = more active; in vitro selection for triplet polymerase activity
Summary of the method: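 Fitness is a logarithmic measure of how a genotype enriched relative to the wild type, with replicate averages weighted by inverse variance. The logarithm uses base 2, and enrichment came from Illumina sequencing of input and output libraries. Those libraries were PCR-built, transcribed mutants of each subunit of a heterodimeric triplet polymerase ribozyme, passed through one triplicate in vitro selection round that included frozen incubation at −7 °C, gel excision of extended constructs and streptavidin-bead capture. Genotypes were kept only if they had ≥10 input reads and ≥1 read per output.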

Polymerase ribozyme fitness (log ratio), ≤ -4.2:
U6G U7A C54U C96G A113G C123A
C8U G50U G65A C72U G94A G141A
C8U A138G
U7G G74U C85U U101A C149G
U7C A16U C36U G58C C87G A106C G117U C118A G143U
U7G C14A C36U U55A C69A G81A C95A A150U
C8G A22C G42C C54G A89U C95G
U6C C8A A12G C27U G34C U61A C85U A98G G128A
C8A A49C A66C G81C G83U C99U U101G C108U
C8A G58U G67U U78G C116G C118A
C8A G42A C75G C87A G141A
U6A U56G A60C A73G G84U C85A A107U C114U U148G
U7A A12U A24G A60G G86U U111G C118U G140C
C8A G46U C96U U146G
U7A A52C C54U G74U G88U
U7G A16U A21G A37U A49G G94A A119C C132G A138U
C8G A21U G25C A52C U55A C63A G84A
C8A A12U A19U U55A G83A A150G
C8U A37G G42C C63U G94C A122G C131A
U6C C93G G143U
C8U U13C C36A G50C C96A U101G
U6G U7A U44G G50U G86A A89U C99U
U6G G50U G84A G92A A113U A137G U146A
U7A A28C G84U C105A G124U G143C
U7A C87G A120U
U7A A28U U44A U82C C87G G94U G152U
U6G A49C G67C U78C U90G C105G C114A C125G U145G
U6G C54A C85U G86A C87U C93U G141A
C8U U31G U56A A119C G128C A138C U144G
U6C A52G G70A C96A U102G C129G G143A U146A
C8G C14U C35A C57U G58C A73U U77G C93U A106G C116G
C8G A28C A39C A49C C69G
C8A G11C G58A C87G C95U
C8G C35G C75U C87U C99U C123U
U6C C18U G86U A107G
C8G A21C C54U G83U
U6C U53G C79G A91C U109A
C8A A41U G67A G141U
C8G A47G U56A G62A U78A C87A C99U U134C U146G U148G
U7G A40G A41C A52U C57U U77G A122C G128U G141U
C8U A16G C36U A41U G59U G83U A121C
U6G U13C G50C C54U A64U U78G C96G A98U A137C
U7G C18G U31C A47G G86A A107U
U7A A20U A40C U56A U61A G133A G141U A142C
U7A A16C A21U A22U G58C A60G G65U C79G G81A C95A U127C
U6G A16C A60U U78C A91U C116A G117U
U6G G42C G83U U130G U151G
U6G G25U A28U C69A G83A C85U G92C G124U
U7C C14A C18U A41U G84U C103U G112A
C8A A47G A49C G59C A60U G68U C87U
C8U A21U G59A A107U C149U
U7C A39C C116G U139G A150C
U7A C27A A64C G88C A106C
C8G C14G U53A U55A C76A C96A
C8G C51G C63U C75A G83C G86A C93A G126U
U7G A19U A47C C125A G136U A137C
C8G C43A C87U U134G
U7G C8A C32A A91C G94U C108G C123G G136U
C8G C27A G86U G112C C132A
U6C A40G A52G C57A U78G C93A U148G
U6G C18G A39U A40U C93A G94U
C8A G46A G86A G92A G112C G143U
U7G A16G G83C C95A A98U U101A A115U U144A
U6C A22U C35U A60U A89G A91U A106G
C8U U15C A23U A26G C27U G70U G83A A142C
C8A A19C C32U G59C A66G G71U G86C G92U
C8U A60U C85U C131U
U6C U53A C76A U90C C95G U104G
C8A C27G A89G
U6G U7A A20C A49U G65U C108G U144A
C8A G48U A52G G83A C85A C93U
C8A A37C U44C G71C G86U G140U
C8A G70A
C8A A17G C27G A64U G94A G117A C123A U148C
U7C A20C A29U G50A G86A G126A
U7G U9A A52U G84A
U7C A12U A23C A39U G88U C103A C118G U144A
C8A A40C A52C C54A C76A C116U
U7G U15A G67C G83A C131G
C8G G48C G83A G88C
U6G A52G C72A C76A C93U A110G
U7A G34A G70A
C8G A22G G50A U56A A91U U139G U148A
U7A A26U U53A A73U G92C U104A
U7C A20U A22G G50A G58C C87A
U6G A17C C38U A52C G58U A150C
C8A A22U G58C G70A G86U U90C A98U A107U C125U
U6G A47C G70U C93U C116U
U7A A24C G50U A52U C87G U134G
U6C U9G G11A U13G A26U A29U A39U A106U
U7A U13G A21U C54U G70A G83A C87A A89C U104G G112A U135A A147C
U7A C51A G58A C76A C96A A122U G128A C149U
C8G A26U A52C G67C C99U U101G A119U
U7C A12G U33G U77G G84A A89U C99U
C8U G50A C95A C103A C149G
U6A C51A G62A C75A G81C G88C C125G
C8U A21C A23C G80A U82G G86U A137G
U6C A19G A23U A24C G86A G92A C105G A142U
U6C A22G C27A G83C C85A U101C U104A
U7C U9G U44G A73U C85G A115G U135G A147U
U7G C85G C93A A138G
U7C C8G A21C C27A A52C G68A G92A C105G
U7G A23U U53G G92U G128A U148A
C8A A24U A41C U45G U55A C75G G83U
C8A G50A C72U C96G C105U G140C
U6G G83A A89U C96G C103G A113G
C8G U15C C35A U55A C76U C85U
U7G A28G A39U C85U A110U C114A A138U
U7G A28U G71A G83C
U6C C14U A26C A28U A49U
U6C A30U G58C C95U U135C U144A
C8G C27A U33A C51A G58A C79U C96A U111G G143U A150C
C8U C27U G46U C76U G92A A97G
U6C C27A U31A U56A G83A G86A A121U U145G U148C
U7A A40C C54G G84A A115G G133U
U7C U13C A19U G58A A66G C87G G100A
U6G A17G A47U A49C C85U G92C
U7G A12U A17G A21C C76U C79U U82G C103G U127G
C8U A47U U56A G84A A91C C95U C105U A122U
U7C C18A U55G G62C C75G A137U
C8U C32U U56G C75G G80A C85A
U7A C36A C54U U90A G141C G143C
U7A U44A A49C C93U C123G U130G
C8G U31A G50C A89C C103G A147C
U7A G11A A16G C79A A138C U139A
C8A U31A A37G C93A
U7G C43U C51A U56A U90A C95U C105A A122C A138U
U7C A24G A29G G50U C75G C95G
C8G G25A A30U G74U C95A C116A G124C U135A G136A A137G
U6C G11C A39C U101A A121U
U6G A23C G67U A73G A98G G100A A119U
C8G C14U C57U G62U C87A G126U
U7G A20U A52C G88U C96U
U7G U13C A29C G48A U55A A73G C95G U104C
U7G A24U C75U C87U G92A C96G C103G C105A G140C G141U U146A
U7G A19U A29C G83C C87U G117C
C8U C36A G48A C87A
C8U A20G C51G G94U U127G
C8A U44A C57A G83A U134A
U6G C10G C14G U56A C87A A91C U104G
U6A C93U A98G C103A
C8A A24G C63U G84A U90G G141U
U7G A39U U56G C75G C125U U146C
U7C A17G A29G A41C C87G
U7A C87U U90A C95G C118U
C8G C10U U13A A30U C36G C85U
U6A U78A A91U G94A A115G
U7C U9A A52C C87A G92C G141A
C8U C35U G68A C85A C116U
U6A C54A C87G
U6C A23U C76G G80U G88A C96U U135C
C8U C85U A89U U90G G117C U146A A147U
C8A A37U
C8U G81U G92C C116A G133C
U6G U61A G67A C87U A107U
U7G C8U A89G G100A U134A
C8A U31C A64U C96A A113G A137G A142U A150C
U7A A17U C57A G83A A137G
U6C C76A C105U C132U
U7G A23U G68C G92U
C8G A47C C79A G83C
U7A C18G G34A C99U A119U
U6G C10G C69G A121C A150C
U7G U9G C79U G84A C114U
U7A A47C U56A C87A C93G A121U C132G G143A U144C
C8U A23G G50A C95U A147C
U6C A40C C69U C72A C76G C93G
